Data reported in paper PMC12136788.
The list shows a part of the results.

T1: UNK ZnF1-3 (human, UniProt Q9C0B0 31-174)
T1 sequence: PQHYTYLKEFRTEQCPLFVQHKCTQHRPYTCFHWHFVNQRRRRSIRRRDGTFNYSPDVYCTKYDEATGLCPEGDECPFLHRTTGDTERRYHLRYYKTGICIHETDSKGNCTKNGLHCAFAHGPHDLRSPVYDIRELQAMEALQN

B1: chr5:145543945:145543946:-_ENSG00000133706_ENST00000545646|hu_hu|hu_hu_hu_mus_True|38_68 (ssRNA)
RNA: GGGAGUUCUACAGUCCGACGAUCCUGAACGGCCAGUGGUGGGAAAUAAUCAAGCCAGUGCUCUGCUUCAGAAAAUUUCACUAUGUCGUCAUCAGAGAGGCCAAGGGAUUUCAUAAUGUCCCACUGGUACUUAGAAGAUCCUGCCAACAGAGGAUUGAGCAUCA
B2: 173376590_173377072_1939_CDS_ENSG00000113742_ENST00000334035|human|control|control (ssRNA)
RNA: GGGAGUUCUACAGUCCGACGAUCCUUGAUAGUGGGACUUGAUACACAAAGGUAGAGUUUUCCAUCUUCUUCAAUGCAUGCAUCAAUGAGAGCCUGCACAGAGCUUUCAUCUUGAAACAGCAGGAAUGCAUAGCCUUUAGGAGGCAACAGAGGAUUGAGCAUCA
B3: chr5:116376479:116376480:+_ENSMUSG00000029516_ENSMUST00000051704|mus_mus|motif|central (ssRNA)
RNA: GGGAGUUCUACAGUCCGACGAUCCUGCUCCAGGAGGGAUCUCUGAGUCUCAGAGGCCUUCAGCUCCACCUCCUUCUGACGGAGCACAGCCUCCACCUCUGACACUCUGCGAUGUAACCGGGUCAUUUCCUGCUCCAUCUUGUGCAACAGAGGAUUGAGCAUCA
B4: chr17:60770872:60770873:+_ENSG00000011028_ENST00000303375|hu_hu|hu_hu_hu_mus_True|38_78 (ssRNA)
RNA: GGGAGUUCUACAGUCCGACGAUCUCUUUAAAAAAAAAAAAAAAAAGACAAACAAUAAUAAUGGCACUCGAGAAUCAAGAACUACAAUAGAGGGUCCAUGUCUUCGAUUUGUUCACAUCGUCCUGCACUGGGACACGGGGACUGCAACAGAGGAUUGAGCAUCA
B5: 55650286_55650406_580_CDS_ENSG00000126787_ENST00000247191|human|control|control (ssRNA)
RNA: GGGAGUUCUACAGUCCGACGAUCCUCAGCUUUCACAGCAUUCUGGUUUGAUAAAAGAAAACAAGGCAUAUCAGGUCUAUAACGACCCACUUUAAAUAUUCCUCGUUUAGCUUUCUCUCUCUGCUCUUUCAAUUUUUGAAGUUGCAACAGAGGAUUGAGCAUCA
B6: 159642612_159644452_156_CDS_ENSG00000171497_ENST00000307720|human|control|control (ssRNA)
RNA: GGGAGUUCUACAGUCCGACGAUCCAAUUCUAAGACAAUUCGACCAACUCGCUCCCCUCCGAUGUCCACGUCAAAGAAGACUCGAGGGUUACUGGGGUUGGAGGGCUUGGCUUGGGGGGACGGGUGCGACAUCUUGACUUGCAGCAACAGAGGAUUGAGCAUCA
B7: chr1:21069516:21069517:-_ENSG00000127483_ENST00000312239|hu_hu|FALSE|FALSE (ssRNA)
RNA: GGGAGUUCUACAGUCCGACGAUCUUAAAAUGUCAAGUGCCACAGGGAAGAGAAAUGAUAACCAGAAAUUUGUAUUUCUAGCUAGUACUAUUUAACACAACUUCACAAUACUAAAACAAAUACAAAUAAGAAAGGGUUAGGUAGCAACAGAGGAUUGAGCAUCA
B8: chr18:35731883:35731884:+_ENSMUSG00000037236_ENSMUST00000166793|perfect_dup|FALSE|FALSE (ssRNA)
RNA: GGGAGUUCUACAGUCCGACGAUCAAUGUUAAAUAUAGACUGCAAAUUAUGGGAAGAAGUACUAGCAGAAGACAGUGCACUAUGAGCUCCUUGUUGAUUCAAUGAAGAACUCAUUCCAAGAUUCAUUAAACUAGCAAGGCGUGCCAACAGAGGAUUGAGCAUCA
B9: 118653275_118653597_1064_CDS_ENSMUSG00000020114_ENSMUST00000020315|mouse|control|control (ssRNA)
RNA: GGGAGUUCUACAGUCCGACGAUCCAAAGGAAUUAUCUUUUCAAGGUAUUCACCUAUUCUAUGGCCAGCUUGCCUACUAAUAGCAGCAAUACACUGUAUGUAGGUCCUUGUUGUUGACAUGGAGUCAUUUUUGGACAACUCUGACAACAGAGGAUUGAGCAUCA
B10: chr2:85770095:85770096:+_ENSG00000168906_ENST00000306434|hu_hu|motif|central (ssRNA)
RNA: GGGAGUUCUACAGUCCGACGAUCAUCCAGAUCCCUGACAAUGACCCCAGGGCGGAGAUCGAAAUUCUUCUUCACAAUCUCGGAUAGCUCUCUCUCACUCUUCUGAGAGGUACCAUAAUGGAAAAUGGAGAUAGAUAAUGGAUGCAACAGAGGAUUGAGCAUCA
B11: 145586132_145586252_6219_CDS_ENSMUSG00000045482_ENSMUST00000132925|mouse|control|control (ssRNA)
RNA: GGGAGUUCUACAGUCCGACGAUCCUUCCACAAUCUUCACCACAGCUCGGAGGAUCUUGGCAUCUGGGGACUUCUCAAUGAGGGAGGUCAAGAUGGUCUGGAUGAAGUUCUUCCGCAUCUCCAUGCUCAUCACCGCCAGACGAGCAACAGAGGAUUGAGCAUCA
B12: 117003386_117003506_1447_3pUTR_ENSMUSG00000027351_ENSMUST00000028829|mouse|control|control (ssRNA)
RNA: GGGAGUUCUACAGUCCGACGAUCCUCCCUCUGAGUCUGACAUACAAUGAUAUAGCAUGCUCUCAGCACAGAGCAUGCAGCUAACUUGAUAUAUGCAUCUUUUAACAGGAUCUGGAGCGUCCUGGCAUUUCCCCCUGGCGUUUUCAACAGAGGAUUGAGCAUCA
B13: chr22:32879901:32879902:+_ENSG00000100225_ENST00000397426|hu_mus|hu_hu_hu_mus_False|28_48 (ssRNA)
RNA: GGGAGUUCUACAGUCCGACGAUCCUCUUCCAUACUCAUGGCAUCCUGAAUUGACUCAGCUUCAACAUUUUGACUAGGCCCUUCCAUACUGUCGUCAGUCCAGGCAUCAGACUGGGCGGCCUGUCCUUGGGAUGAAUCAGUCCCCAACAGAGGAUUGAGCAUCA
B14: chr14:57521665:57521666:+_ENSMUSG00000021945_ENSMUST00000022511|mus_hu|motif|central (ssRNA)
RNA: GGGAGUUCUACAGUCCGACGAUCAACAACAUCAUCAUCAUCUUCCACUGACGAGUUCUGAAACUUAUUAGAUCUAGACACGGAAGGAUUAGCUGGACCACUAAAUGAGUUUCCUACAUUCGUGAGACUAGUUGCCAUGGCCGUCAACAGAGGAUUGAGCAUCA

target: T1, UNK ZnF1-3; assay: nsRBNS (natural sequence RNA bind-n-seq); RBNS binding buffer (assumed for nsRBNS): 25 mM Tris pH 7.5, 150 mM KCl, 3 mM MgCl2, 0.01% Triton X-100, 500 ug/ml BSA, 20 U/ml SUPERase-In, 4 C; UNK is unkempt and MSI1 is Musashi-1; names of the RNAs are library labels; protein concentration not given here; high values mean tight binding

Row | Binder | binding signal [enrichment R]
1 | B1 | 1.17
2 | B2 | 1.39
3 | B3 | 0.476
4 | B4 | 2.68
5 | B5 | 1.16
6 | B6 | 0.617
7 | B7 | 1.68
8 | B8 | 0.78
9 | B9 | 0.396
10 | B10 | 0.957
11 | B11 | 1.29
12 | B12 | 0.787
13 | B13 | 0.894
14 | B14 | 0.976
